Paper PMC4336329 (PLoS ONE, 2015)
The campaign covered roughly 310,000 compounds. About 14,000 (4.5%) showed an effect of 50% or more. The effect is printed as a negative number. The list shows a part of the results.

Molecular target: human ether-à-go-go-related gene (hERG) potassium channel (human, UniProt Q12809)
Test: primary screen, population patch clamp on CHO cells stably expressing hERG
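Note: peak tail current of the secondary pulse compared with the same well before compound.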

Sequence of human ether-à-go-go-related gene (hERG) potassium channel (Q12809 whole entry, looked up): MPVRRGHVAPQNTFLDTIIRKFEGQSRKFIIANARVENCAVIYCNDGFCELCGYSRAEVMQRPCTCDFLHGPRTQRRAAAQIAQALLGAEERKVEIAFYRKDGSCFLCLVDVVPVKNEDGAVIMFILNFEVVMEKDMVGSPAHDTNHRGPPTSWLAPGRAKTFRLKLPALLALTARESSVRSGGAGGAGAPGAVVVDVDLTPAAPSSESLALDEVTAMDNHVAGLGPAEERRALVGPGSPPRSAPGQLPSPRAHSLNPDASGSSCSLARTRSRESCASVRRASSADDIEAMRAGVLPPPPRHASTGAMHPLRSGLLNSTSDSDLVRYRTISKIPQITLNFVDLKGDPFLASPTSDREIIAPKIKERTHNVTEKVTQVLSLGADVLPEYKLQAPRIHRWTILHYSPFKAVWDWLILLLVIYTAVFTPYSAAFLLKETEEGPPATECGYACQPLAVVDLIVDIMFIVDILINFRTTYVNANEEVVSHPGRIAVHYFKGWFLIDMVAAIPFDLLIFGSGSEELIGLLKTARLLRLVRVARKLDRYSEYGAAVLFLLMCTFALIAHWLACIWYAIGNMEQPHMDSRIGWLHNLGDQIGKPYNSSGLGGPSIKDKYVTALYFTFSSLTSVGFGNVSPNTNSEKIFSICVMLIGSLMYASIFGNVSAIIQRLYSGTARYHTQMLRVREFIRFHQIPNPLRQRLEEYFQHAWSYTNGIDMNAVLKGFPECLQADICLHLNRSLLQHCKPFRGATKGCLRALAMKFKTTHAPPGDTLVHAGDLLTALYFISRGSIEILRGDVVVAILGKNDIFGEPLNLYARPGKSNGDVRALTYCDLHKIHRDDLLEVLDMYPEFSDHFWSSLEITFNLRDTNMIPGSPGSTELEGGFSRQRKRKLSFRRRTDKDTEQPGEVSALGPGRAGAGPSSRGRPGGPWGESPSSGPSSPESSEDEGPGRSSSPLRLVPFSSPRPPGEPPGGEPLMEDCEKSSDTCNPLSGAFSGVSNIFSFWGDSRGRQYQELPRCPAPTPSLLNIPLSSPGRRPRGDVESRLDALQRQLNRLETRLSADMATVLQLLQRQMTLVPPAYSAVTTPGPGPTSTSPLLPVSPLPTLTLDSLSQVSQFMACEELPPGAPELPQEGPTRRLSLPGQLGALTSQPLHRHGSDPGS

First: COc1ccc(C(=O)NC(=S)NNC(=O)c2ccc3ccccc3n2)cc1
Second: O=C(Oc1ccc(/C=N/NC(=O)c2ccccn2)cc1)c1ccc(Br)cc1
The “hERG current change (%, negative = inhibition) at 10uM” value of the first is higher: 28.4% for the first, 2.54% for the second.

First: Cc1ccc(NC(=O)/C(C#N)=C/c2cccs2)c(C)c1
Second: Cc1ccc(NC(=O)CN(C)Cc2cc(=O)n3ccsc3n2)cc1
The “hERG current change (%, negative = inhibition) at 10uM” value of the first is higher: -3.5% for the first, -7.66% for the second.

Going from `COc1ccc(CNC(=O)c2cc(-c3cccs3)on2)cc1` to `COc1ccc2cc(-c3nc4ccccc4n3C)c(=O)oc2c1`, the “hERG current change (%, negative = inhibition) at 10uM” value rises from -2.38% to 3.68%.

Compared with `Cc1noc(C)c1CS(=O)(=O)Cc1ccc(Cl)cc1`, `CC(C)NS(=O)(=O)c1ccc(CCC(=O)O)cc1` is lower in “hERG current change (%, negative = inhibition) at 10uM” value: 8.25% for the first, -11.6% for the second.

First: O=C1CCCC2=C1C(c1cccc(Br)c1)n1nc(-c3ccco3)nc1N2 (stereo not shown)
Second: Brc1ccc2oc(-c3ccn[nH]3)cc2c1
The “hERG current change (%, negative = inhibition) at 10uM” value of the first is lower: 7.56% for the first, 14.8% for the second.

Compared with `Cc1cccc(C)c1NC1=NC(=S)N(c2ccc(N(C)C)cc2)C1(C)C`, `Cc1ccc(NC(=O)CSc2nn(-c3ccc(Cl)cc3)c(=S)s2)cc1S(=O)(=O)N(C)C` is higher in “hERG current change (%, negative = inhibition) at 10uM” value: 8.36% for the first, 18.7% for the second.

Compared with `O=c1c([N+](=O)[O-])cccn1Cc1ccccc1Cl`, `O=C(Nc1ccc(Cl)c([N+](=O)[O-])c1)c1ccco1` is higher in “hERG current change (%, negative = inhibition) at 10uM” value: 6.54% for the first, 7.92% for the second.

Compared with `CCOc1cccc(OCC)c2c(C)[n+](CC3CCCO3)c(C)c1-2.[O-][Cl+3]([O-])([O-])[O-]` (stereo not shown), `CCOC(=O)C1=C(CC)OC(N)=C(C#N)C1c1ccc(OC)cc1OC` (stereo not shown) is higher in “hERG current change (%, negative = inhibition) at 10uM” value: -36.9% for the first, -0.063% for the second.

Going from `CCN1C(=O)CC(NNC(=O)c2ccc(Cl)cc2)C1=O` (stereo not shown) to `CCN(CC)C(=O)c1ccc2c(c1)N(Cc1ccccc1)C(=O)CS2=O` (stereo not shown), the “hERG current change (%, negative = inhibition) at 10uM” value falls from 7.34% to 4.74%.

Going from `O=C1CN=C(c2ccccc2)c2ccccc2N1Cc1ccc(C(F)(F)F)cc1` to `O=C(Nc1cccc(Cl)c1Cl)c1ccc(-c2ccccc2)cc1`, the “hERG current change (%, negative = inhibition) at 10uM” value rises from -0.479% to 6.92%.

Compared with `COc1ccccc1NC(=O)CSc1nncn1-c1ccccc1`, `COC(=O)C1CCN(Cc2cn(Cc3ccccc3)nc2-c2cc3ccccc3o2)CC1` is lower in “hERG current change (%, negative = inhibition) at 10uM” value: 3.98% for the first, -75.9% for the second.

Compared with `Cc1ccc(/C=C2/C(=O)N=C(N)N2C)s1`, `Cc1cc(C)cc(N2C(=O)CCN(Cc3ccccc3)C2=O)c1` is lower in “hERG current change (%, negative = inhibition) at 10uM” value: 15.5% for the first, 12.9% for the second.

Going from `C=CCNC(=S)NNC(=O)c1cc(-c2cccnc2)nc2ccccc12` to `NCc1oc(-c2ccccc2)cc1C(=O)O`, the “hERG current change (%, negative = inhibition) at 10uM” value falls from 20.1% to 16.6%.

Going from `CC(=O)N1CCc2cc(S(=O)(=O)NC(C(=O)Nc3nc(C)cs3)C(C)C)ccc21` (stereo not shown) to `CC1Sc2ccc(S(=O)(=O)CCC(=O)N3CCc4ccccc43)cc2NC1=O` (stereo not shown), the “hERG current change (%, negative = inhibition) at 10uM” value rises from 8.38% to 23.1%.

First: O=C1NC(=S)NC(=O)C1C/C=C/c1ccccc1
Second: CCN1CCc2c(OCc3ccccc3)cccc2C1=O
The “hERG current change (%, negative = inhibition) at 10uM” value of the first is higher: 10.6% for the first, -15.6% for the second.

First: CCN1CCN(CCCN(Cc2ccco2)C(=S)Nc2cc(Cl)ccc2C)CC1
Second: S=C(Nc1ccccc1Cl)N1CCN(c2ccccn2)CC1
The “hERG current change (%, negative = inhibition) at 10uM” value of the first is lower: -61.9% for the first, 19.2% for the second.

First: CCS(=O)(=O)c1nc(S(=O)(=O)c2ccc(Cl)cc2)c(N2CCc3ccccc3C2)s1
Second: COc1ccc(S(=O)(=O)N/N=C(/C)c2cccc(NC(=O)c3ccccc3Cl)c2)cc1
The “hERG current change (%, negative = inhibition) at 10uM” value of the first is higher: 7.91% for the first, -2.92% for the second.

First: CN(c1ccccc1)S(=O)(=O)c1cc(C(=O)c2nccn2C)ccc1Cl
Second: OC1(c2ccccc2)c2ccccc2-c2ncccc21 (stereo not shown)
The “hERG current change (%, negative = inhibition) at 10uM” value of the first is lower: -48.4% for the first, -3.3% for the second.

Going from `Cc1cc(NC(=O)c2cccc([N+](=O)[O-])c2)no1` to `Cn1c(=O)oc2cc(S(=O)(=O)Nc3cccc([N+](=O)[O-])c3)ccc21`, the “hERG current change (%, negative = inhibition) at 10uM” value falls from 11.5% to 4.69%.

Compared with `Cc1cccc(C(=O)NN2C(=O)C3C(c4ccccc4)C=CC(c4ccccc4)C3C2=O)c1` (stereo not shown), `CC[N+](CC)(CC(=O)Nc1c(C)cccc1C)Cc1ccccc1.O=C([O-])c1ccccc1` is higher in “hERG current change (%, negative = inhibition) at 10uM” value: 3.83% for the first, 14.7% for the second.

First: O=C(COC(=O)c1cc([N+](=O)[O-])ccc1N1CCOCC1)c1ccc(F)cc1
Second: CN(CC(=O)Nc1ccc(F)cc1)C(=O)c1cc2c(s1)CCCCC2
The “hERG current change (%, negative = inhibition) at 10uM” value of the first is lower: -55.9% for the first, 8.87% for the second.

First: CCc1ccccc1N(CC(=O)NC1CCCCC1)C(=O)CCCC(=O)Nc1ccccn1
Second: O=C(NC1CCCCC1)C1CCN(c2nnnn2-c2ccccc2)CC1
The “hERG current change (%, negative = inhibition) at 10uM” value of the first is lower: -27.6% for the first, -17.9% for the second.

Going from `COc1ccc(-c2[nH]nc3oc(=O)c(CCO)c(C)c23)cc1.O=C(O)C(=O)O` to `COc1ccc(-c2cc(C#N)nc(Oc3ccc(Cl)cc3)n2)cc1`, the “hERG current change (%, negative = inhibition) at 10uM” value falls from 22.8% to 6.64%.

Going from `Cc1cccc(C)c1NC(=O)CCCCCC1NC(=O)NC1C` (stereo not shown) to `COCCn1c(C)cc(C(=O)CSc2nc3ccccc3o2)c1C`, the “hERG current change (%, negative = inhibition) at 10uM” value rises from 3.52% to 3.78%.

Compared with `COc1ccc(C2=CC(c3c(C)nn(-c4ccccc4)c3Cl)n3nnnc3N2)cc1OC` (stereo not shown), `CCOc1cc(CNc2ccc3cn[nH]c3c2)ccc1OC` is lower in “hERG current change (%, negative = inhibition) at 10uM” value: 11.4% for the first, -1.03% for the second.

Going from `CC[C@]12C=CCN3CCC4(c5cc(Br)c(OC)cc5N(C)C4[C@@](O)(C(=O)OC)[C@@H]1OC(C)=O)C32` (stereo partly shown) to `COc1cc(NC(=O)COC(=O)CNC(=O)C2CCCCC2)cc(OC)c1`, the “hERG current change (%, negative = inhibition) at 10uM” value falls from 7.6% to 4.7%.

First: CCOC(=O)c1c(C)[nH]c(C(=O)OCC(=O)NC2CCS(=O)(=O)C2)c1C (stereo not shown)
Second: NS(=O)(=O)c1ccc(NCCCn2ccnc2)c([N+](=O)[O-])c1
The “hERG current change (%, negative = inhibition) at 10uM” value of the first is lower: -1.13% for the first, 8.43% for the second.

In the case of `O=C(CSc1nccc(-c2ccc(Br)cc2)n1)NCCc1ccccc1`, the “hERG current change (%, negative = inhibition) at 10uM” value is reported as -2.48%.
